Results reported in the supplement of paper PMC4967469.
A lower IC50 marks a more sensitive line; fits outside the tested doses are given as limits. AUC sums up the same curve from the lowest dose to the 256-fold higher top dose: 1 means no effect, lower means more sensitive. For part of these data: Any top dose called inferred was calculated from the reported fits.

How the values were obtained:
Assay in all cases: Viability of human cancer cell lines after 72 h of drug (GDSC screen)
PD-173074 = compound: CCN(CC)CCCCNc1ncc2cc(-c3cc(OC)cc(OC)c3)c(NC(=O)NC(C)(C)C)nc2n1 [PD-173074]; settings: top dose 2 µM; top dose inferred
Protocol: (§1)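 Human cancer cell lines in 384-well plates, medium with 10% serum, drug for 72 h over a 256-fold dose range (nine 2-fold or five 4-fold steps up to the top dose). Adherent lines were fixed and stained with the nucleic acid dye Syto60, suspension lines read with resazurin; signal relative to control wells, capped at 0 and 100%. One two-parameter sigmoid per drug and line, fitted in a mixed model over all curves with the slope shared within a line.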

SB590885 = compound: CN(C)CCOc1ccc(-c2nc(-c3ccncc3)c(-c3ccc4c(c3)CC/C4=N\O)[nH]2)cc1 [SB590885]; settings: top dose 5 µM; top dose inferred
Protocol: as §1

Lapatinib = compound: CS(=O)(=O)CCNCc1ccc(-c2ccc3ncnc(Nc4ccc(OCc5cccc(F)c5)c(Cl)c4)c3c2)o1 [Lapatinib]; settings: top dose 2 µM
Protocol: as §1

TGX221 = compound: Cc1cc(C(C)Nc2ccccc2)c2nc(N3CCOCC3)cc(=O)n2c1 [TGX221]; settings: top dose 10 µM
Protocol: as §1

Cell Line	AUC (PD-173074)	IC50 (PD-173074) [nM]	AUC (SB590885)	IC50 (SB590885) [nM]	AUC (Lapatinib)	IC50 (Lapatinib) [nM]	AUC (TGX221)	IC50 (TGX221) [nM]
LB996-RCC (kidney, adherent)	0.979	> 2000	0.983	> 5000	0.721	592	0.872	> 10000
MN-60 (B-cell leukaemia, suspension)	0.985	> 2000	0.987	> 5000	0.988	> 2000	0.988	> 10000
HL-60 (acute myeloid leukaemia, suspension)	0.968	> 2000	0.956	> 5000	0.99	> 2000	0.962	> 10000
LNCaP-Clone-FGC (prostate, adherent)	0.982	> 2000	0.984	> 5000	0.982	> 2000	0.982	> 10000
DSH1 (bladder, adherent)	0.983	> 2000	0.948	> 5000	0.454		0.989	> 10000
CTV-1 (acute myeloid leukaemia, suspension)	0.928	> 2000	0.958	> 5000	0.992	> 2000	0.986	> 10000
MY-M12 (leukaemia, suspension)	0.968	> 2000	0.977	> 5000	0.979	> 2000	0.959	> 10000
NCI-H1155 (large cell lung carcinoma, suspension)	0.993	> 2000	0.993	> 5000	0.993	> 2000	0.989	> 10000
MZ1-PC (pancreas, adherent)	0.962	> 2000	0.975	> 5000	0.945	> 2000	0.945	> 10000
GI-ME-N (neuroblastoma, adherent)	0.869	> 2000	0.961	> 5000	0.937	> 2000	0.811	7870
LOUCY (T-cell lymphoblastic leukaemia, suspension)	0.88	1430	0.98	> 5000	0.991	> 2000	0.99	> 10000
DMS-79 (small cell lung carcinoma, suspension)	0.984	> 2000	0.986	> 5000	0.954	> 2000	0.965	> 10000
RKO (large intestine, adherent)	0.984	> 2000	0.921	> 5000	0.965	> 2000	0.984	> 10000
TE-10 (oesophagus, adherent)	0.988	> 2000	0.988	> 5000	0.908	> 2000	0.965	> 10000
NCI-H1694 (small cell lung carcinoma, suspension)	0.989	> 2000	0.989	> 5000	0.976	> 2000	0.985	> 10000
Mo-T (hairy cell leukaemia, suspension)	0.983	> 2000	0.988	> 5000	0.987	> 2000	0.987	> 10000
OS-RC-2 (kidney, adherent)	0.918	> 2000	0.974	> 5000	0.794	1430	0.584	1170
U-698-M (B-cell leukaemia, suspension)	0.986	> 2000	0.987	> 5000	0.934	> 2000	0.934	> 10000
ROS-50 (B-cell leukaemia, suspension)	0.968	> 2000	0.971	> 5000	0.984	> 2000	0.977	> 10000
SU-DHL-8 (B-cell lymphoma, suspension)	0.984	> 2000	0.979	> 5000	0.93	> 2000	0.976	> 10000
TE-15 (oesophagus, suspension)	0.957	> 2000	0.975	> 5000	0.862	> 2000	0.982	> 10000
L-428 (Hodgkin lymphoma, suspension)	0.984	> 2000	0.992	> 5000	0.993	> 2000	0.993	> 10000
Ramos-2G6-4C10 (Burkitt lymphoma, suspension)	0.959	> 2000	0.945	> 5000	0.973	> 2000	0.953	> 10000
NB1 (neuroblastoma, semi-adherent)	0.983	> 2000	0.982	> 5000	0.972	> 2000	0.975	> 10000

Cell Line	AUC (PD-173074)	IC50 (PD-173074) [nM]	AUC (SB590885)	IC50 (SB590885) [nM]	AUC (Lapatinib)	IC50 (Lapatinib) [nM]	AUC (TGX221)	IC50 (TGX221) [nM]
RPMI-6666 (Hodgkin lymphoma, suspension)	0.922	> 2000	0.845	4770	0.955	> 2000	0.916	> 10000
KM12 (large intestine, adherent)	0.977	> 2000	0.975	> 5000	0.979	> 2000	0.95	> 10000
NCI-SNU-1 (stomach, suspension)	0.979	> 2000	0.986	> 5000	0.987	> 2000	0.958	> 10000
RC-K8 (B-cell lymphoma, suspension)	0.993	> 2000	0.993	> 5000	0.993	> 2000	0.993	> 10000
SK-MM-2 (myeloma, suspension)	0.987	> 2000	0.987	> 5000	0.985	> 2000	0.983	> 10000
COLO-824 (breast, adherent)	0.986	> 2000	0.986	> 5000	0.988	> 2000	0.987	> 10000
LU-139 (small cell lung carcinoma, suspension)	0.838	1940	0.772	2500	0.972	> 2000	0.978	> 10000
NB(TU)1-10 (neuroblastoma, adherent)	0.964	> 2000	0.962	> 5000	0.991	> 2000	0.993	> 10000
NCI-H1355 (lung adenocarcinoma, adherent)	0.887	> 2000	0.967	> 5000	0.934	> 2000	0.851	> 10000
NALM-6 (B-cell leukaemia, suspension)	0.968	> 2000	0.982	> 5000	0.971	> 2000	0.95	> 10000
SH-4 (melanoma, adherent)	0.972	> 2000	0.631	881	0.967	> 2000	0.947	> 10000
TE-12 (oesophagus, suspension)	0.978	> 2000	0.983	> 5000	0.703	532	0.935	> 10000
SNB75 (glioma, adherent)	0.963	> 2000	0.972	> 5000	0.94	> 2000	0.827	> 10000
MOLP-8 (myeloma, suspension)	0.981	> 2000	0.951	> 5000	0.917	> 2000	0.96	> 10000
OCUB-M (breast, adherent)	0.986	> 2000	0.989	> 5000	0.366	56.6	0.944	> 10000
SKM-1 (haematopoietic neoplasm, suspension)	0.778	900	0.972	> 5000	0.965	> 2000	0.984	> 10000
SK-ES-1 (Ewing sarcoma, semi-adherent)	0.944	> 2000	0.961	> 5000	0.984	> 2000	0.984	> 10000
LP-1 (myeloma, suspension)	0.99	> 2000	0.993	> 5000	0.984	> 2000	0.985	> 10000
CHP-126 (neuroblastoma, suspension)	0.987	> 2000	0.987	> 5000	0.97	> 2000	0.987	> 10000
DJM-1 (skin, adherent)	0.969	> 2000	0.952	> 5000	0.918	> 2000	0.973	> 10000
OMC-1 (cervix, adherent)	0.988	> 2000	0.988	> 5000	0.986	> 2000	0.988	> 10000
COR-L88 (small cell lung carcinoma, adherent)	0.98	> 2000	0.984	> 5000	0.978	> 2000	0.878	> 10000
NKM-1 (acute myeloid leukaemia, suspension)	0.965	> 2000	0.93	> 5000	0.975	> 2000	0.893	> 10000
